According to PubChem BioAssay AID686971 (National Center for Advancing Translational Sciences (NCATS), 2013):
Several values for one entry are separate records, joined by “and”; a condition that tells them apart may be missing. Identical values can stand only once. The campaign covered roughly 360,000 compounds. About 7,500 (2.1%) were called active. This list was built around the results that the source calls inconclusive (neither active nor inactive); the mix of calls is not that of the screen. Calls follow the shape of the dose curve; as a rule, active = well fitted cell-killing curve with a large enough effect; inconclusive = small, poorly fitted or top-dose-only effect, or effect the other way, or another doubt; inactive = no such curve, though single readings can be large or run the other way. Potencies beside an inconclusive call are fits to weak or partial responses and may not hold up.

Experiment: qHTS for induction of synthetic lethality in tumor cells producing 2HG: qHTS for the HT-1080-IDH1KD cell line;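 as to activity, negative = toxicity: 0% = DMSO wells and -100% = cell-free medium wells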
Settings: HT-1080 IDH1 knockdown viability, ATP luminescence, 48 h; activity, negative = toxicity: at 46.1 µM (top of the series) unless noted
In short: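 Knockdown cells (IDH1KD HT-1080) received compounds 2 h after plating at 750 cells/well and were kept 48 h at 37 °C in 5% FBS RPMI. A CellTiter-Glo luminescence read gave % activity for curve fitting.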
Potency is read from the fitted curve at half-maximal effect; tags tell the direction and shape of the fitted curve.

Row | Structure (SMILES) | Potency | activity, negative = toxicity
1 | CC1CCN(CCCNC(=O)c2ccc3c(Cl)c4c(nc3c2)CCCC4)CC1 | active: 20.6 µM | –
2 | COc1ccc(N2CCN(CCNC(=O)Nc3ccc(Cl)cc3)CC2)cc1 | inconclusive: 35.5 µM [cytotoxic, single point] | –
3 | O=C(Nc1ccc(OC(F)(F)F)cc1)c1ccc2nccnc2c1 | inconclusive: 13 µM [cytotoxic, single point] | –
4 | Oc1ccc(-c2cnc(-c3ccc(O)cc3)nc2)cc1 | active: 0.206 µM | –
5 | CN(CC(=O)Nc1ccc(Cl)c(C(F)(F)F)c1)C(=O)c1ccc(OCC2CCCO2)cc1 (stereo not drawn) | inconclusive: 29.1 µM [cytotoxic, single point] | –
6 | Cc1ccc(NC(=O)CSc2nnc(NC3CC3)s2)cc1S(=O)(=O)N1CCOCC1 | inactive | –
7 | O=C(CN(C1CC1)S(=O)(=O)c1ccc(S(=O)(=O)N2CCCCCC2)cc1)Nc1ccccc1 | inconclusive: 20.6 µM [cytotoxic, single point] | –
8 | Cc1ccc(NC(=S)N/N=C/c2ccc([N+](=O)[O-])s2)cc1 | inconclusive: 20.6 µM [cytotoxic, single point] | –
9 | Cn1c(C(=O)N2CCc3ccccc3C2)cc2oc3ccccc3c21 | inactive | –
10 | CC(C(=O)NCCc1nc2ccccc2[nH]1)n1cc([N+](=O)[O-])cn1 (stereo not drawn) | inactive | –
11 | COc1ccc(S(=O)(=O)N2CCCC(C(=O)Nc3cccnc3)C2)cc1Cl (stereo not drawn) | inconclusive: 32.6 µM [cytotoxic, single point] | –
12 | CCN(C[C@H]1N[C@@](C)(C(=O)OC)[C@H]2C(=O)N(C)C(=O)[C@@H]12)S(=O)(=O)c1ccc(OC(F)(F)F)cc1 | inactive | –
13 | Cc1cc(NC(=O)COC(=O)c2ccc(S(=O)(=O)N3CCCc4ccccc43)cc2)no1 | active: 4.11 µM | –
14 | c1cc2c(cc1C1CCCCC1)c1c3n2CCN=C3CCC1 | inconclusive: 23.1 µM [cytotoxic, single point] | –
15 | CC1(C(=O)Nc2cccc(Oc3ccccc3)c2)CCN1Cc1ccccc1Cl (stereo not drawn) | inconclusive: 25.9 µM [cytotoxic, partial curve] | –
16 | COc1ccc(-c2sc3ccccc3c2/C=C/c2ccncc2)cc1 | inconclusive: 20.6 µM [cytotoxic, single point] | –
17 | O=C(O)CCCC(=O)N1CCN(c2cccc(Cl)c2)CC1 | inactive | –
18 | COc1ccccc1NC(=O)CNC(=O)CC12CC3CC(CC(C3)C1)C2 | inconclusive: 25.9 µM [cytotoxic, partial curve, poor fit] | –
19 | O=C(NCc1cccnc1)C1Cc2c(-c3ccc(Cl)cc3)ccnc2O1 (stereo not drawn) | active: 18.4 µM | –
20 | CC(C)C[C@H]1CN(CCCC[C@@H]2CNC(=O)C(=O)N2Cc2ccccc2)C(=O)C(=O)N1CCC1CCCCC1 | inconclusive: 29.1 µM [cytotoxic, single point] | –
21 | CCC(=O)N1CCN(c2ccc(Cl)cc2NC(=O)Cc2ccc(Cl)cc2)CC1 | inconclusive: 20 µM [cytotoxic, single point] | –
22 | O=C(N/N=C\c1cc(Cl)ccc1O)c1ccc(S(=O)(=O)N2CCCCC2)cc1 | active: 2.31 µM | –

Row | Structure (SMILES) | Potency | activity, negative = toxicity
23 | NC(=O)C(C(=O)/C=C/c1ccc(Cl)cc1)=C1SCCS1 | inconclusive: 18.4 µM [cytotoxic, single point] | –
24 | COc1ccc(O)c(/C=N/NC(=O)CCC(=O)Nc2cccc(C)c2)c1 | inconclusive: 23.1 µM [cytotoxic, single point] | –
25 | N#CC1=C(SCc2ccccc2)NC(=O)CC1c1cccc(O)c1 (stereo not drawn) | inactive | –
26 | O=C(NCc1cccnc1)NC1(C(F)(F)F)Oc2ccc(Cl)cc2O1 (stereo not drawn) | inconclusive: 14.6 µM [cytotoxic, partial curve] | –
27 | O=C(Cc1ccc(S(=O)(=O)N2CCOCC2)s1)Nc1ccc(Br)c(C(F)(F)F)c1 | inconclusive: 23.1 µM [cytotoxic, partial curve] | –
28 | CCN(CC)c1ccc(-c2n[nH]c(=S)n2-c2ccccc2)cc1 | active: 20.6 µM | –
29 | CCNc1nc(NC(C)(C)C)nc(N2CCCC2)n1 | inconclusive: 23.1 µM [cytotoxic, single point] | –
30 | OCC#Cc1ncc(C(F)(F)F)cc1Cl | inconclusive: 29.1 µM [cytotoxic, single point] | –
31 | CC(C)NC(=O)CSc1nc2ccccc2n1-c1ccccc1 | inconclusive: 22.4 µM [cytotoxic, single point] | –
32 | COC(=O)[C@]12CCCCC=C1N(Cc1ccc(Cl)cc1Cl)C(=O)[C@H](CC(=O)N1CCN(C(=O)C3CC3)CC1)C2 | inactive | –
33 | COc1ccc(Cl)cc1NC(=O)CSc1nnc(COc2ccccc2)n1C | inconclusive: 31.6 µM [cytotoxic, single point] | –
34 | CCCCNc1c(-c2ccc(SC3CCCCC3)c(OC)c2)nc2ccc(C)cn12 | inconclusive: 29.1 µM [cytotoxic, single point] and inconclusive: 20.6 µM [cytotoxic, single point] | –
35 | O=C(Cn1cnc2ccc(Br)cc2c1=O)c1cccs1 | inconclusive: 29.1 µM [cytotoxic, single point] | –
36 | CCOC(=O)C1(CCOc2ccccc2)CCN(Cc2ccc(OCCO)cc2)CC1 | inconclusive: 32.6 µM [cytotoxic, single point] | –
37 | COc1cccc(C(N)c2nc(-c3csc4ccccc34)cs2)c1 (stereo not drawn) | inconclusive: 23.1 µM [cytotoxic, partial curve] | –
38 | CCOC(=O)c1c(NS(C)(=O)=O)sc2c1CCC(C)C2 (stereo not drawn) | – | inactive: 0.182% [at 9.24 µM]
39 | CC(=O)CC1OC(=O)C(Br)=C1NCc1ccccc1 (stereo not drawn) | active: 0.891 µM | –
40 | C=CCNC(=O)N1CCC(n2nccc2NC(=O)CCCc2ccccc2)CC1 | inactive | –
41 | COc1ccc(Cn2c(=S)[nH]c3cc(OC)c(OC)cc3c2=O)cc1 | – | inconclusive: -7.55% [cytotoxic]
42 | COc1cc(OC)c(CN2CCc3c([nH]c4ccccc34)C2)cc1Br | inconclusive: 29.1 µM [cytotoxic, single point] | –
43 | CCc1ccc(N=CC23c4ccccc4C(c4ccccc42)C2C(=O)N(c4ccc(OC)cc4)C(=O)C23)cc1 (stereo not drawn) | inconclusive: 20.6 µM [cytotoxic, single point] | –
